Data taken from PubChem BioAssay AID1476 (National Center for Advancing Translational Sciences (NCATS), 2009).
The campaign covered roughly 200,000 compounds. About 4,500 (2.2%) were called active. The shares of active, inactive and inconclusive entries below differ from those in the screen. Calls follow the shape of the dose curve; as a rule, active = well fitted inhibition curve with a large enough effect; inconclusive = small, poorly fitted or top-dose-only effect, or effect the other way; inactive = flat fitted curve, though single readings scatter. Where the call is inconclusive, the potency comes from a doubtful curve fit.

Target: Cruzipain (Trypanosoma cruzi) (UniProt P25779)
UniProt P25779, sequence (P25779 whole entry, looked up): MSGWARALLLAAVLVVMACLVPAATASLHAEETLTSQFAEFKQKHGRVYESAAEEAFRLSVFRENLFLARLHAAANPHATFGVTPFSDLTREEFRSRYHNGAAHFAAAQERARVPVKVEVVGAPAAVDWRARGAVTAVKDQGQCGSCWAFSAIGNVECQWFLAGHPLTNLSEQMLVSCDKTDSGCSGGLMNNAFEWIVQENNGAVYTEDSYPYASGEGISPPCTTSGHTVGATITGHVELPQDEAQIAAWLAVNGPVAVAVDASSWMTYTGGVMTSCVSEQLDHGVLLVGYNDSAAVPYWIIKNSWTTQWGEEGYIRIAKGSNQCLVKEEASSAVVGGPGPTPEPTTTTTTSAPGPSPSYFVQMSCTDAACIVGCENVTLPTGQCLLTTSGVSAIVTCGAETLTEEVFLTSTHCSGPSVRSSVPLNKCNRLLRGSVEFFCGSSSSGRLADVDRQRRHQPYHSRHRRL
Assay: qHTS Assay for Promiscuous and Specific Inhibitors of Cruzain (without detergent); also: nearly all actives have a fitted effect of over 40% in size;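 as to max response, negative = inhibition: plate controls were enzyme without inhibitor for no effect and buffer without enzyme for full effect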
Conditions: purified cruzain, Z-FR-AMC fluorescence, no detergent
Procedure, shortened: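 Purified cruzain at 1.5 nM, pre-incubated 15 min with compound at room temperature in 100 mM sodium acetate pH 5.5, 5 mM DTT, 0.00005% Triton X-100. Reaction started with 2 uM Z-FR-AMC; AMC fluorescence increase over 60 s gives rate.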
Potency is read from the fitted curve at half-maximal effect; tags tell the direction and shape of the fitted curve.

Row | Compound | max response, negative = inhibition | Potency
1 | O=C(CS(=O)CC(=O)N(c1ccccc1)C(C(=O)NC1CCCCC1)c1ccco1)Nc1ccc(F)cc1 (stereo not given) | inactive: -24.5% | 
2 | COc1ccc(-n2ccn(CC(=O)Nc3ccc(C)c(C)c3)c(=O)c2=O)cc1OC |  | inconclusive: 31.6 µM [activator, single point]
3 | COc1ccc(/C(C)=N\Nc2nc(-c3ccc(Cl)cc3)cc(C(F)(F)F)n2)cc1OC |  | inconclusive: 31.6 µM [activator, single point]
4 | COc1ccc(C(=O)Oc2cc(/C=N/NC(N)=S)ccc2OC)cc1 |  | inconclusive: 25.1 µM [inhibitor, partial curve, poor fit]
5 | CCc1ccc(Nc2sc(C(=O)c3ccccc3)c(N)c2S(C)(=O)=O)cc1 | inactive: -8.37% | 
6 | O=C1ON=C(c2ccccc2)/C1=C/c1ccc(-c2ccccc2[N+](=O)[O-])o1 |  | inconclusive: 3.16 µM [activator, single point]
7 | Cc1ccc(CSc2nc(-c3ccc(C(C)(C)C)cc3)nc3cc(=O)[nH]n23)cc1 | inactive: 1.5% | 
8 | CCn1c(Cn2nnc(-c3ccccc3)n2)nnc1SCC(=O)Nc1cccc(C(C)=O)c1 |  | inconclusive: 39.8 µM [activator, single point]
9 | CC(C)(C)OC(=O)N1CCC(c2c(C(=O)N3CCN(c4ccccn4)CC3)cnn2-c2ccccc2Cl)CC1 |  | inconclusive: 39.8 µM [activator, single point]
10 | O=c1c(C=NCc2cccs2)c(O)n(C2CCCCC2)c(=O)n1C1CCCCC1 |  | inconclusive: 31.6 µM [inhibitor, single point]
11 | COc1ccc(/C=C/C(=O)N(CC(C)C)CC(C)C)cc1Br |  | inconclusive: 39.8 µM [activator, single point]
12 | COC(=O)[C@@]1(Cc2ccc(OC)cc2)[C@H]2c3cc(C(=O)N(C)C)n(Cc4ccsc4Br)c3C[C@H]2CN1C(=O)c1ccccc1 |  | inconclusive: 20 µM [activator, partial curve]
13 | NC(=O)c1c(NC(=O)c2ccc(S(=O)(=O)N(CCCl)CCCl)cc2)sc2c1CCCCC2 |  | active: 3.98 µM
14 | Cc1ccc2[nH]c(-c3ccccc3)cc(=O)c2c1 | inactive: -11.1% | 
15 | COc1ccc(CNc2oc(/C=C/c3cccc(OC)c3)nc2C#N)cc1 |  | inconclusive: 15.8 µM [activator, partial curve]
16 | COc1ccc(CNC(=O)c2ccc3c(c2)N(Cc2ccccc2C)C(=O)c2ccccc2S3=O)cc1 (stereo not given) | inactive: 3.63% | 
17 | COC(=O)C1=C(C)N=c2s/c(=C/c3ccoc3)c(=O)n2C1c1ccccc1 (stereo not given) | inactive: -6.66% | 
18 | O=C(CNc1cccc2ccccc12)c1ccc([N+](=O)[O-])cc1 |  | inconclusive: 39.8 µM [inhibitor, single point]
19 | Cc1ccc(S(=O)(=O)Nc2nc3ccccc3nc2NCc2ccc3c(c2)OCO3)cc1C |  | inconclusive: 39.8 µM [inhibitor, single point]
20 | CC(C)c1ccc(Oc2cccc(C(=O)/C(C#N)=C/N(C)C)c2)cc1 |  | inconclusive: 39.8 µM [activator, single point]
21 | Cc1cc(C)nc(N/N=C/C=C/c2ccccc2)n1 | inactive: -2.83% | 
22 | O=C(c1ccc2c(c1)CCN2S(=O)(=O)c1ccc(Cl)cc1)N1CCN(c2ccccc2)CC1 |  | inconclusive: 15.8 µM [inhibitor, single point]

Row | Compound | max response, negative = inhibition | Potency
23 | CCOC(=O)c1c(-c2ccc(C)cc2)csc1NC(=O)c1cccc(N2C(=O)CCC2=O)c1 |  | inconclusive: 39.8 µM [activator, single point]
24 | Cc1cc2oc(=O)cc(-c3ccccc3)c2c(C)c1-c1ccc(C(F)(F)F)cc1 |  | inconclusive: 39.8 µM [inhibitor, single point]
25 | CCOC(=O)c1c(C)oc2c1c(C(c1ccncc1)N1CCOCC1)c(O)c1ccccc12 (stereo not given) |  | inconclusive: 31.6 µM [activator, single point]
26 | O=C1CN(C(=O)CSc2nc(-c3ccccc3)cs2)c2ccccc2N1 |  | inconclusive: 31.6 µM [inhibitor, single point]
27 | Nc1nnnn1/N=C/c1cc(Cl)cc(Cl)c1OCc1ccc(Cl)cc1Cl |  | inconclusive: 6.31 µM [inhibitor, single point]
28 | COc1ccc(C(=O)NNC(=O)c2cc3cc([N+](=O)[O-])ccc3oc2=O)cc1OC | inactive: 1.12% | 
29 | COc1ccc(CCNC(=O)c2c(O)c3cccc4c3n(c2=O)CC4)cc1OC |  | inconclusive: 31.6 µM [activator, single point]
30 | COC(=O)[C@@]1(Cc2ccc(F)cc2)[C@H]2c3cc(C(=O)N4CCCC4)n(Cc4ccc(OC(F)(F)F)cc4)c3C[C@H]2CN1C(=O)c1ccccc1 |  | inconclusive: 15.8 µM [activator, partial curve]
31 | CCCn1c(=O)c2sccc2n2c(CCCC(=O)Nc3ccc(Oc4ccccc4)cc3)nnc12 |  | inconclusive: 20 µM [activator, partial curve]
32 | CCN(CC)S(=O)(=O)c1ccc2c(c1)c(=O)c(C(=O)N1CCc3ccccc3C1)cn2C |  | inconclusive: 31.6 µM [activator, single point]
33 | COC(=O)C1=C(O)CSC1=Nc1ccc(C)cc1 | inactive: -8.54% | 
34 | S=C([S-])NCCNC(=S)[S-].[Zn+2] |  | inconclusive: 31.6 µM [inhibitor, single point]
35 | CCn1c(SCc2ccc(F)cc2Cl)nc(=O)c2c(C(=O)OC)cc(C3CC3)nc21 | inactive: 10.7% | 
36 | C#C[C@]1(OC(C)=O)CC[C@H]2[C@@H]3CCC4=CC(=O)CC[C@@H]4[C@H]3CC[C@@]21C | inactive: 6.31% | 
37 | CCOc1cccc(N2C(=O)CC(N3CCN(c4ccc(S(=O)(=O)CC)cc4)CC3)C2=O)c1 (stereo not given) | inconclusive: 103% [activator] | 
38 | Cc1ccc(-n2c(C)cc(/C=C3\C(=O)NC(=O)N(C)C3=O)c2C)cc1C |  | inconclusive: 25.1 µM [inhibitor, single point]
39 | COc1ccccc1CNc1cc(-c2cccc(NS(C)(=O)=O)c2)ncn1 | inactive: -0.421% | 
40 | CCN1C(=O)C(CC(=O)N2CCN(C(c3ccccc3)c3ccccc3)CC2)N(CC)C1=O (stereo not given) |  | inconclusive: 7.94 µM [activator, single point]
41 | CC(C)c1ccc(OCc2nc(-c3ccccn3)no2)c(Br)c1 |  | inconclusive: 39.8 µM [activator, single point]
42 | Cc1cccc(C(=O)Nc2cc(OCc3cccc(F)c3)c(Cl)cc2Cl)c1 |  | inconclusive: 39.8 µM [inhibitor, single point]
43 | COc1cc2c(cc1NC(=O)Nc1ccc(F)cc1)oc1ccccc12 |  | inconclusive: 31.6 µM [inhibitor, single point]
44 | O=S(=O)(c1ccc(-c2csc(Nc3ccc(Br)cc3)n2)cc1)N1CCCC1 |  | active: 31.6 µM

Row | Compound | max response, negative = inhibition | Potency
45 | CC(C)[C@H](NC(=O)[C@H](CCCN=C(N)N)NC(=O)NC(Cc1ccccc1)C(=O)O)C(=O)NC(C=O)CCCN=C(N)N (stereo not given in full) |  | active: 0.0316 µM
46 | COc1ccc(-c2noc(CCCC(=O)NCCc3ccccc3)n2)cc1OC |  | inconclusive: 39.8 µM [activator, single point]
47 | CCCOc1c(Br)cc(C2C3=C(CCCC3=O)N(C)C3=C2C(=O)CCC3)cc1OC |  | inconclusive: 39.8 µM [activator, single point]
48 | COc1ccc(N2CCn3c2nc2c3c(=O)n(CCCc3ccccc3)c(=O)n2C)c(OC)c1 |  | inconclusive: 39.8 µM [activator, single point]
49 | Nc1ncnc2c([C@@H]3O[C@@H](CO)[C@H](O)[C@@H]3O)nsc12 | inactive: 20.1% | 
50 | CCN(CC)CCCNC(=O)CSc1nc2nc(C)c(Cc3c(F)cccc3Cl)c(C)n2n1 | inactive: 3.51% | 
51 | CC(=O)Nc1nc2ccccc2n1CCOc1ccccc1 | inactive: -6.75% | 
52 | CCOc1ccc(CNC(=O)c2ccc(NC(=O)N3CCSc4ncccc43)cc2)cc1OC | inactive: -0.823% | 
53 | COCCN1C(=O)C(CC(=O)Nc2ccccc2)SC1=Nc1ccc(OC)cc1 (stereo not given) |  | inconclusive: 39.8 µM [activator, single point]
54 | CCOc1ccc2nc(SCC(=O)N3c4ccccc4Sc4ccccc43)c(C#N)cc2c1 |  | active: 3.98 µM
55 | COc1ccccc1OCC(=O)NCCc1nc2ccccc2[nH]1 |  | active: 12.6 µM
56 | Nc1ncnc2c1c(I)cn2C1OC(CO)C(O)C1O (stereo not given) | inactive: -0.867% | 
57 | O=C(NCCCc1nc2ccccc2n1Cc1ccccc1)C1CCCCC1 | inactive: -6.92% | 
58 | CC1(C)Oc2ccc(/C=C/C(=O)N3CCOCC3)c(O)c2C(N2CCOCC2)C1O (stereo not given) | inactive: 2.29% | 
59 | COc1ccc(CCNC(=O)CN2CCC(n3nnc4cc(F)ccc43)CC2)cc1OC | inactive: 14.7% | 
60 | COc1cc(CN(C(=O)c2ccc(OC(C)C)cc2)C2CCS(=O)(=O)C2)cc(OC)c1OC (stereo not given) |  | inconclusive: 39.8 µM [activator, single point]
61 | Cc1ccc(-c2csc3ncnc(SCC(=O)c4ccc5c(c4)OCCO5)c23)cc1 |  | active: 10 µM
62 | Cc1ccc(C)c(Cn2c(=O)n(Cc3ccco3)c(=O)c3oc4ccccc4c32)c1 |  | inconclusive: 1 µM [inhibitor, single point]
63 | CC1(C)Cc2c(C#N)c(OCC(=O)c3ccccc3)nc(-c3ccoc3)c2CO1 |  | inconclusive: 31.6 µM [inhibitor, single point]
64 | CC(=O)c1cccc(NC(=O)CN2C(=O)c3cccnc3Sc3ccccc32)c1 | inactive: -10.5% | 
65 | COC(=O)C1=C(C)NC(C)=C(C(=O)OC)C1C(=O)OCC(=O)N1c2ccccc2CC1C (stereo not given) |  | inconclusive: 39.8 µM [activator, single point]
